Sequences and labels used below:
B1: CPEB3 Ribozyme (parent)
chain: UAACAGGGGGCCACAGCAGAAGCGUUCACGUCGCAGCCCCUGUCAGAUUCUGGUGAAUCUGCGAAUUCUGCUGUAUAUCUC

Read counts are not given, so values of variants with three or more changes are uncertain.

The variants in the data set derive from B1. In words: self-cleavage, relative activity (ratio to wild type); higher = more cleavage; in vitro, sequencing. An outline of the steps: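 Barcoded CPEB3 ribozyme mutants, produced by rounds of error-prone PCR, self-cleaved while being transcribed with T7 RNA polymerase for 5 hours at 37°C and during a subsequent 15 min DNase I step before EDTA was added. Sequencing of template-switched cDNA on Illumina gave cleaved and total reads, and DNA sequencing assigned barcodes to variants. Each variant's relative activity is its cleaved/total read fraction divided by the unmutated ribozyme's fraction, averaged across three batches. A variant needed a minimum of 5 reads.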
As to A5G C12U A13G A28U U43C U54C U58C, the self-cleavage amounted to 0.05.
For the variant A5G A47G U54C U58A, the self-cleavage came to 0.12.
Under A5G A45G A64G U67C stands 0.38; under A5G C17A G30A A47G C79A, 0.2.
Under A5G A47G U66A U78C stands 0.12; under A5G G7A A15C G30A G42A, 0.1; under A5G A35G U74A, 1.24.
Consider A5G C38U U43C U51G U72A U74C, for which the self-cleavage amounted to 0.15.
As for A5G A21G A45G C59A A64U, the self-cleavage is 0.09.
A5G G8A U51A: the self-cleavage amounted to 0.17.
As to A5G C12U C14G U25C U26C, the self-cleavage amounted to 0.13.
As to A5G G8A A15G U51C U69A, the self-cleavage is 0.42.
Consider A5G A28C U67A, for which the self-cleavage stood at 0.12.
As to A5G A35C U43C A77G, the self-cleavage is 0.54.
Regarding A5G A21U A56G U78A, the self-cleavage was found to be 0.39.
As to A5G G6A A20U A21G U25C, the self-cleavage came out at 0.3.
A5G A35G A65U U66C U69C: the self-cleavage was 0.29.
As for A5G G6U A13G C23A A47G U48C A64U, the self-cleavage came out at 0.04.
For the variant A5G C12A A18U A20G C44U C71U, the self-cleavage is 0.04.
As to A5G A47G U72C, the self-cleavage amounted to 0.76.
The value for A5G C32U A64U was 0.27; that for A5G A20G C29U was 0.3; that for A5G C12U U43A U58C U60C U76C was 0.15.
Regarding A5G C27U U41C U54A, the self-cleavage worked out at 0.08.
Under A5G C32U U43C stands 0.22; under A5G A57G G63A U66A, 0.34; under A5G G7U G9C G16C U43A U66C U69A, 0.06.
A5G A28G A47U U51C A64G U76A: the self-cleavage was 0.04.
A5G A20G C39G U72C U80C: the self-cleavage amounted to 0.05.
Under A5G A20U A57G A64G U67A U69A U72C stands 0.04.
Turning to A5G A20G G33C A45U U48C U72G U76C, the self-cleavage was found to be 0.08.
On to A5G C11U A15G U49A, for which the self-cleavage is 0.63.
Consider A5G C29U U60C A65G, for which the self-cleavage turned out to be 0.55.
As to A5G C11A G46A A64U C71A, the self-cleavage came out at 0.19.
Consider A5G G7A A13U U25A G36A A64U, for which the self-cleavage is 0.09.
As for A5G A35U A75G, the self-cleavage was found to be 0.16.
Turning to A5G C39G U80C, the self-cleavage was 0.1.
Take A5G A20U U25C G63U: the self-cleavage was 0.37.
Under A5G G8A A18G G63A stands 0.23.
On to A5G C44G U72C, for which the self-cleavage turned out to be 0.31.
With A5G A28G U49C U69C, the self-cleavage was 0.1.
As to A5G C68A U72A, the self-cleavage was found to be 0.18.
As for A5G A20U U31C, the self-cleavage is 0.42.
Consider A5G A21G U43C U48C U51C U72C, for which the self-cleavage is 0.19.
A5G A21G A28G U49C: the self-cleavage stood at 0.
With A5G A20U U48C A56G, the self-cleavage turned out to be 0.32.
Under A5G A20U U26A A64G stands 0.29; under A5G A21G U31A U41A U69A, 0.07; under A5G G7A C81A, 0.55.
In the case of A5G C11U U58C U72C, the self-cleavage worked out at 0.06.
For A5G C40A U51A U60A U66A U76A, the self-cleavage is 0.
With A5G A45G U74C, the self-cleavage came to 0.84.
Consider A5G A45G U54C U67C, for which the self-cleavage was 0.34.
As for A5G C11G G24A U72C, the self-cleavage is 0.09.
As to A5G C17G U41A U48C U72A, the self-cleavage came to 0.09.
For the variant A5G C44A U69C, the self-cleavage turned out to be 0.12.
On to A5G A21G U60A A64G, for which the self-cleavage came out at 0.14.
For the variant A5G C40U U51C A57G, the self-cleavage amounted to 0.3.
For A5G C23G U48C A56U C59U, the self-cleavage is 0.08.
Turning to A5G C37A U48C A64G, the self-cleavage stood at 0.08.
A5G C11A U66C: the self-cleavage is 0.14.
A5G A20U A56G: the self-cleavage came to 0.36.
As for A5G A20G U26G A65G U69C, the self-cleavage was found to be 0.
Turning to A5G A56U U58C U69C, the self-cleavage came out at 0.08.
Under A5G A56U C68U stands 0.22; under A5G A35G U54C A75U U78C, 1.17.
Under A5G C11A A56G A64U U69G stands 0.06; under A5G C32U U72A, 0.2.
Consider A5G A20G U58C U67C, for which the self-cleavage was determined as 0.14.
For the variant A5G C38G U67C U69A, the self-cleavage is 0.11.
For A5G A20U U80A, the self-cleavage was determined as 0.56.
Under A5G C34A C37G U41A U54C U67C A75C stands 0.12; under A5G A20G A57G U58C U72A A75U, 0.12; under A5G G6U A45G C50G G61A U69C, 0.03.
A5G A21U G24A A35U A56G: the self-cleavage turned out to be 0.08.
Consider A5G A57G U67C U76A, for which the self-cleavage stood at 0.19.
Under A5G A20U U25C U43C stands 0.39; under A5G A35U U43A A57U, 0.07.
On to A5G C12U A15G U25C A35U, for which the self-cleavage amounted to 0.37.
A5G C11U U25C C38G U41A: the self-cleavage stood at 0.05.
On to A5G C29U A35U U51C A57G, for which the self-cleavage amounted to 0.09.
As for A5G C62U U80C, the self-cleavage turned out to be 0.09.
Turning to A5G A21G A56G U72A, the self-cleavage was determined as 0.17.
As for A5G A45U A56U U60C U69C, the self-cleavage amounted to 0.23.
Under A5G A20G U25C U76C U80A stands 0.85.
On to A5G A35U U43A, for which the self-cleavage came to 0.48.
With A5G A28U A35G C40A A65G U80C, the self-cleavage worked out at 0.06.
Turning to A5G A45G G70A, the self-cleavage worked out at 0.4.
Turning to A5G C11A A21G U26A G46U G63U A64G, the self-cleavage worked out at 0.18.
As to A5G A20G G55U U60C U72C, the self-cleavage amounted to 0.29.
For A5G G6U A13U U41C C62A, the self-cleavage turned out to be 0.45.
On to A5G A35G C38A A64G U66A, for which the self-cleavage came out at 0.08.
On to A5G A35U A65G U72A, for which the self-cleavage was determined as 0.15.
In the case of A5G A21G U26C A28G C39A U69A, the self-cleavage amounted to 0.04.
The value for A5G G8A C23U U51A was 0.36.
Under A5G A20G U26A U72A stands 0.1; under A5G A21G U72C, 0.67.
Consider A5G C23U G24A A57G U72C, for which the self-cleavage is 0.14.
Under A5G A28G G46A U60C U72A stands 0.07; under A5G A20U U67G, 0.64; under A5G A28U A56U, 0.14.
Under A5G C14U U26C U60C stands 0.1.
In the case of A5G A35U G52C, the self-cleavage amounted to 0.7.
Consider A5G C32A U48A A64G, for which the self-cleavage is 0.09.
As to A5G C27U U60C, the self-cleavage is 0.47.
Under A5G A45G U69C stands 0.23.
Consider A5G C38G U51G U54C U69C U72C, for which the self-cleavage is 0.29.
For A5G C12U U48C U51A C62U, the self-cleavage is 0.25.
As for A5G A35U A56U, the self-cleavage was determined as 0.22.
For A5G A35U A56C, the self-cleavage was 0.33.
Regarding A5G A20G U41A G63A A64C U78C, the self-cleavage came to 0.1.
Under A5G G7A G9A stands 0.57; under A5G A56U U58A U80C, 0.24.
For the variant A5G A35G U43C A64G, the self-cleavage is 1.02.
As to A5G A28U U72C A77G, the self-cleavage turned out to be 0.58.
Regarding A5G C17U A18G U67C U69C, the self-cleavage was 0.32.
The value for A5G A35U U80A was 0.45; that for A5G A28G C44A U69A was 0.07; that for A5G A35U A45G was 0.34.
With A5G C29U U41A G55U G61U, the self-cleavage turned out to be 0.1.
In the case of A5G A45U U49C A56G, the self-cleavage amounted to 0.3.
For the variant A5G A21G U25C A35G U54C, the self-cleavage stood at 0.09.
For A5G A28G U48A U67C U69C U72A, the self-cleavage was found to be 0.11.
Take A5G G6U A47G U80C: the self-cleavage is 1.07.
A5G A35G G36C: the self-cleavage was 1.12.
Take A5G A45U U54C: the self-cleavage was 0.38.
A5G C12U A64C: the self-cleavage amounted to 0.22.
As for A5G A21G U41C G52C U54A, the self-cleavage is 0.31.
As to A5G C11G C29U U31C A57G A64G, the self-cleavage was found to be 0.21.
For the variant A5G C11G C23G C39A U41C, the self-cleavage worked out at 0.07.
With A5G A35G A45U U72A, the self-cleavage was 0.32.
As for A5G G6U U51A U58C U80A, the self-cleavage came to 0.08.
A5G A21U U31A U76C: the self-cleavage was 0.31.
Under A5G G6A A15U stands 0.1; under A5G C11G U72C, 0.49.
Take A5G A35G A56U A65G: the self-cleavage was 0.6.
As for A5G A20U U31G U54C U67A G73A, the self-cleavage was found to be 0.73.
As for A5G C14A A18G U43C, the self-cleavage was found to be 0.31.
In the case of A5G C12U A28U U67A U69A U72A U80C, the self-cleavage was found to be 0.11.
For the variant A5G A75U U78C, the self-cleavage amounted to 0.95.
As for A5G A35G G36A A45C U54C U67C, the self-cleavage was found to be 0.09.
Turning to A5G A64G C81U, the self-cleavage is 0.77.
As for A5G A20G U69A U74C A75G U78A, the self-cleavage stood at 0.19.
For the variant A5G A28U U43A U66C U67A U72C U74C, the self-cleavage stood at 0.32.
As for A5G A28G U41A U76C A77G, the self-cleavage worked out at 0.11.
For the variant A5G G7C G30A U43C U69C, the self-cleavage came out at 0.06.
With A5G C23G A57G, the self-cleavage turned out to be 0.33.
For the variant A5G A35G U72C U78C, the self-cleavage amounted to 1.25.
A5G A21G A45G A65G U67C U78A: the self-cleavage stood at 0.11.
Regarding A5G A28G U31C U41C G42U A64G A65G, the self-cleavage stood at 0.31.
For the variant A5G A20G U25C A57G U60C, the self-cleavage is 0.48.
Take A5G C17U C32U G42A U69C: the self-cleavage was determined as 0.7.
Regarding A5G A45U A64G, the self-cleavage stood at 0.33.
Consider A5G C34U A56G C59U, for which the self-cleavage was found to be 0.26.
For A5G C12U U25C U26C A28U, the self-cleavage turned out to be 0.06.
The value for A5G A56G A57G U58C was 0.34; that for A5G C17G A18G C40U U41A A57U U69C was 0.06; that for A5G A45G C62G A64U was 0.31.
Take A5G A45C U80C: the self-cleavage came out at 0.51.
For the variant A5G A56G U67A, the self-cleavage is 0.27.
As to A5G A28U U49C A56G U69C, the self-cleavage is 0.16.
For A5G C17U G24A U49C A56U G70A, the self-cleavage was determined as 0.05.
Consider A5G C40U U51C A65G U69A U80C, for which the self-cleavage worked out at 0.04.
The value for A5G A20U C32G A35U was 0.11; that for A5G C34U A35G U60A U67C was 0.07; that for A5G C14U C32U was 0.29.
Regarding A5G C17U G30A A56C U60A A64G, the self-cleavage came out at 0.06.

The values above are taken from the RNAGym collection of RNA variant scans (doi:10.1093/nar/gkz1192).
